# Source: patent US10466253B2, “Molecular flux rates through critical pathways measured by stable isotope labeling in vivo, as biomarkers of drug action and disease activity” (The Regents of the University of California, priority 2004, dated 2019)
# Where two headings read alike, the source gives them in different places.
# B1: leptin: leptin administered to ob/ob mice (protein, UniProt P41160 22-167, looked up)
# Leptin: VPIQKVQDDTKTLIKTIVTRINDISHTQSVSAKQRVTGLDFIPGLHPILSLSKMDQTLAVYQQVLTSLPSQNVLQIANDLENLRDLLHLLAFSKSCSLPQTSGLQKPESLDGVLEASLYSTEVVALSRLQGSLQDILQQLDVSPEC
# Test system: adipose tissue TG synthesis and lipolysis
# Conditions: for adipose tissue TG synthesis: ob/ob mice treated with leptin
molecule,measurement,setting,value
B1,adipose tissue TG synthesis,,suppressed
same,adipose tissue TG synthesis,listed as Leptin,significant decrease
same,adipose lipolysis,"obese mice, leptin administration",suppressed
